The other results are listed elsewhere or left out. These are noisy estimates, calculated here from bound and input reads.
molecular target: T1, Pho4 (S. cerevisiae) (UniProt P07270); assay: relative binding free energy (BET-seq); higher = weaker binding; settings: reference: library average
T1 sequence: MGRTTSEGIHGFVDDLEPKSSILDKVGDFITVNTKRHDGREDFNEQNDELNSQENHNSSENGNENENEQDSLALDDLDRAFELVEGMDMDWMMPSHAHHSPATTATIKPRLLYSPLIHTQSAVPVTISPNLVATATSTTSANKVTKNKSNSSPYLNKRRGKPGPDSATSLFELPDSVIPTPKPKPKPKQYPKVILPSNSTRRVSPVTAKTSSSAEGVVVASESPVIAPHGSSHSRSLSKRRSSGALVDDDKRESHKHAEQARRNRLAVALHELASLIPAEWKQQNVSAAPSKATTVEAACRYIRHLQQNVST

Row | Sequence | relative binding free energy [kcal/mol]
1 | TTTTGCACGTGGTTCA | -0.01
2 | ATATGCACGTGGTATT | -0.02
3 | TGGAGCACGTGGGCTG | -0.39
4 | TTTGGCACGTGTATTG | -0.04
5 | ATGGGCACGTGTCGTT | -0.13
6 | GTTTCCACGTGGGGGG | 0.04
7 | TGTACCACGTGTTGAT | -0.21
8 | TATTCCACGTGGTGCT | 0.06
9 | TTATGCACGTGATTGT | 0.13
10 | TTAGCCACGTGTGTAG | -0.17
11 | ATGTACACGTGGCCGG | 0.01
12 | TGTGCCACGTGTTCTT | -0.12
13 | GGGGCCACGTGGGTTT | -0.09
14 | GTGGGCACGTGTCGGT | -0.06
15 | GTCGGCACGTGTGTAG | 0.02
16 | CGGCTCACGTGGGTTG | 0.08
17 | AGTTACACGTGTGTTT | 0.15
18 | TCAGTCACGTGGGTAA | -0.15
19 | ATAGGCACGTGTGGGA | -0.04
20 | GGTTCCACGTGTTGTA | 0.12
21 | GGCTGCACGTGGTAAT | 0.04
22 | GGAGCCACGTGGTGGA | -0.09
23 | TGCTGCACGTGGCGTG | -0.12
24 | CTGGTCACGTGTGAAA | 0.22
25 | GTATTCACGTGATGTT | 0.31

Row | Sequence | relative binding free energy [kcal/mol]
26 | CTTATCACGTGTTGTC | 0.17
27 | TATACCACGTGTGTTG | -0.13
28 | AGCGGCACGTGTGTTT | 0
29 | AAGGGCACGTGGGGTA | -0.29
30 | ATATGCACGTGTACGG | 0.15
31 | GGGTACACGTGGTCTG | -0.03
32 | ATAGCCACGTGGGTGG | -0.16
33 | TGTTACACGTGAGGGA | 0.28
34 | ATGTGCACGTGCTAGT | -0.22
35 | CATGACACGTGGGGTT | -0.01
36 | GTGAACACGTGGGTGA | -0.06
37 | CAGGACACGTGTGGTA | 0.07
38 | GGGGCCACGTGGTAAA | -0.02
39 | AAGTTCACGTGGTAGA | 0.31
40 | CTTATCACGTGTTTTG | 0.01
41 | CATGCCACGTGGGGGG | -0.4
42 | TTGTGCACGTGAGATG | 0.36
43 | TTATACACGTGTTGAT | -0.03
44 | CTTGACACGTGGTGTT | -0.14
45 | AAAGGCACGTGGAGTA | -0.25
46 | TCATTCACGTGTTTGT | 0.24
47 | GGGAGCACGTGGGCTC | -0.09
48 | GTGATCACGTGGTCCG | 0.24
49 | GGTAGCACGTGAGATT | 0.32
50 | TGGGCCACGTGTAATA | 0.2

Row | Sequence | relative binding free energy [kcal/mol]
51 | TTGGGCACGTGTCGGG | 0
52 | GTGTACACGTGTTGAA | 0.1
53 | ATGGTCACGTGCGATG | 0.22
54 | ATGATCACGTGTTAGA | 0.09
55 | TGTTTCACGTGTGGTG | 0.33
56 | TTGTACACGTGTAGTG | 0.09
57 | GGGAACACGTGTCAGT | 0.07
58 | GATGGCACGTGTTAAT | 0.02
59 | GTTGACACGTGGTTTG | -0.01
60 | CGAGGCACGTGTATTG | -0.24
61 | ATGGGCACGTGGATGT | -0.13
62 | AGTGACACGTGAATGG | 0.26
63 | TACAGCACGTGTGGCG | 0.12
64 | TGTAACACGTGTCGCG | 0.05
65 | TAATACACGTGCGGTG | 0.1
66 | TCGTTCACGTGTGTGA | 0.22
67 | GTTAGCACGTGATCGG | 0.12
68 | TTTTCCACGTGTATTA | 0.05
69 | GAGATCACGTGGGGCG | 0.09
70 | AATTACACGTGATAGG | 0.03
71 | GGCTACACGTGGGTGT | 0.06
72 | TTGTGCACGTGAGTAC | 0.18
73 | TGTTCCACGTGGCGGG | 0.05
74 | TGTTTCACGTGTCATG | 0.28
75 | ATAATCACGTGGTCTA | 0.06

Row | Sequence | relative binding free energy [kcal/mol]
76 | TACGGCACGTGTATTT | 0.04
77 | GAGTTCACGTGTGTGG | 0.37
78 | GTAAACACGTGACGGG | 0.18
79 | GGTTTCACGTGGCTAA | 0.3
80 | TTGTTCACGTGGCTCT | 0.19
81 | CGGATCACGTGGATGT | 0.08
82 | TTGGGCACGTGCAAGA | -0.1
83 | GAGGACACGTGGGCGC | 0
84 | TGATACACGTGATGGA | 0.14
85 | TCGTGCACGTGGGATT | -0.04
86 | CTAAGCACGTGGGAGT | -0.03
87 | AGTTACACGTGTGTCT | 0.05
88 | TCAGGCACGTGGACGG | -0.12
89 | AGAGTCACGTGAGGCT | 0.39
90 | TATTTCACGTGCGGTA | 0.31
91 | GTTACCACGTGTGTAT | 0.05
92 | AGAGGCACGTGGCGGG | -0.11
93 | CTGGCCACGTGGGTAG | -0.25
94 | GAATACACGTGTTTGT | 0.08
95 | TTTCACACGTGAAAGT | 0.31
96 | CAGTGCACGTGCAGGG | -0.19
97 | GTGGTCACGTGAATAC | 0.44
98 | AAGAGCACGTGGGGTG | -0.25
99 | TTTTGCACGTGTACAC | 0.17
100 | CGGAGCACGTGGTGTA | -0.19

Row | Sequence | relative binding free energy [kcal/mol]
101 | TGTTACACGTGTTGTC | 0.11
102 | GATTTCACGTGAGTGA | 0.32
103 | TGGCTCACGTGAAGGA | 0.4
104 | TTTTCCACGTGAGTGA | 0.22
105 | GGTTGCACGTGTTGTT | 0.13
106 | AGTTGCACGTGTAAGA | 0.1
107 | TCAAGCACGTGGTTGT | -0.09
108 | GAAGGCACGTGCTGTG | -0.09
109 | TTCTTCACGTGTGTTG | 0.11
110 | TAATTCACGTGTGATC | 0.35
111 | CTTATCACGTGGGTGG | -0.01
112 | ACTGGCACGTGTGCGG | -0.26
113 | GTGAGCACGTGTAGTG | -0.02
114 | TAATTCACGTGACTGT | 0.41
115 | GAGATCACGTGTTATG | 0.33
116 | ATTTTCACGTGGATTA | 0.27
117 | TAGAGCACGTGGTGAA | -0.04
118 | GGAAGCACGTGGTTGA | -0.23
119 | CCAGTCACGTGTTGGT | 0.06
120 | GCTATCACGTGAGTTT | 0.44
121 | TATAGCACGTGATGTG | -0.01
122 | TTGGACACGTGAGGCT | 0.18
123 | TCGTTCACGTGGAAAG | 0.28
124 | CTTAGCACGTGTGAAT | 0.09
125 | CGGTGCACGTGTGAGA | 0.05

Row | Sequence | relative binding free energy [kcal/mol]
126 | GGTGACACGTGGTGTA | -0.19
127 | TTCGGCACGTGGAGCT | -0.08
128 | ATTGACACGTGCTTGT | -0.05
129 | GGTTACACGTGATCAT | 0.42
130 | TGATTCACGTGTTGAC | 0.6
131 | AGCGTCACGTGGTCGT | 0.01
132 | TAACGCACGTGGGGGG | -0.27
133 | CTGTGCACGTGTCGGG | 0.08
134 | GCGAGCACGTGGTTGA | -0.07
135 | GGCTGCACGTGGTATG | -0.11
136 | TGTTACACGTGAGGGT | 0.27
137 | GAAAGCACGTGTGGTT | -0.11
138 | ATCTTCACGTGTTAGT | 0.12
139 | CTAGGCACGTGATCGG | -0.15
140 | AGTGTCACGTGGGGTC | -0.01
141 | GGACTCACGTGAGAGT | 0.46
142 | TGCCGCACGTGCGGGG | -0.3
143 | ATTGTCACGTGTAGTC | 0.08
144 | TAGGACACGTGATGGC | 0.19
145 | TGGGGCACGTGGTACG | -0.28
146 | AGTTTCACGTGTGACG | 0.36

Reference: the BET-seq Pho4 binding data (Le et al. 2018)
